{"source": "PubChem BioAssay AID686979", "about": "(National Center for Advancing Translational Sciences (NCATS), 2013)", "note": "Values joined by “and” are separate entries in the source; they are usually repeats but may differ in a detail not shown here. Equal entries are not always repeated. The whole screen tested about 420,000 compounds, of which about 50,000 (12%) were called active. Inconclusive means that the source gave no clear call. Such entries were picked first, then a sample of the others. Calls come from the whole dose curve; as a rule, active = well fitted inhibition curve with a large enough effect; inconclusive = small, poorly fitted or top-dose-only effect; inactive = flat fitted curve, though single readings scatter. No potency is given beside an inconclusive call; the fits are too rough. % is set by controls: 0 for no effect and ±100 for the full control effect; potency is the fitted concentration of half-maximal effect; tags give direction and shape of the fitted curve.", "data": [{"assay": "qHTS for Inhibitors of human tyrosyl-DNA phosphodiesterase 1 (TDP1): qHTS in cells in presence of CPT; note: nearly all actives have a fitted effect of over 55% in size", "details": "chicken DT40 Tdp1-/-;hTDP1 cells + 20 nM CPT, ATP luminescence, 48 h; activity change, negative = growth inhibition: at 46.2 µM (top of the series) unless noted", "method_in_brief": "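Cell growth measured by CellTiter-Glo luminescence after a minimum 48 h, 37 C compound exposure with 20 nM CPT in Tdp1-knockout DT40 cells stably expressing hTDP1, seeded 400/well; qHTS titration format.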", "values": [{"smiles": "CN[C@@H]1C[C@@H](c2ccc(Cl)c(Cl)c2)c2ccccc21", "Potency": "active: 23.7 µM"}, {"smiles": "Cc1ccc2c(c1)C1CN(C)CCC1N2C(=O)c1ccco1", "note": "(stereo unspecified)", "Potency": "inactive"}, {"smiles": "CCC(C)NC(=O)c1c(N)n(Cc2ccc3c(c2)OCO3)c2nc3ccccc3nc12", "note": "(stereo unspecified)", "Potency": "inconclusive [inhibitor, single point]"}, {"smiles": "CC(C)OCCCNC(=O)c1c(N)n(CC2CCCO2)c2nc3ccccc3nc12", "note": "(stereo unspecified)", "Potency": "inconclusive [inhibitor, single point]"}, {"smiles": "COc1ccc(-[n+]2c(-c3ccccc3)cc(-c3ccc(C)cc3)cc2-c2ccccc2)cc1", "Potency": "active: 2.59 µM"}, {"smiles": "CCCN(CC1CC1)CC(O)c1ccccc1", "note": "(stereo unspecified)", "Potency": "active: 16.4 µM"}, {"smiles": "O=C(N/N=C/c1c(O)n(C2CC2)c(=S)[nH]c1=O)c1ccccc1O", "Potency": "inactive"}, {"smiles": "CCCCC(CC)COCCCN=Cc1c(O)[nH]c(=S)[nH]c1=O", "note": "(stereo unspecified)", "Potency": "inconclusive [inhibitor, single point]"}, {"smiles": "O=[N+]([O-])c1nccn1CO[C@@H](CO)[C@H](O)CO", "Potency": "inconclusive [inhibitor, single point]"}, {"smiles": "COc1ccccc1NC(=O)N(Cc1ccc2c(c1)OCO2)C1CCN(Cc2ccccc2)CC1", "Potency": "active: 4.61 µM"}, {"smiles": "O=[N+]([O-])c1ccc(Nc2ccccc2)cc1", "Potency": "inconclusive [inhibitor, single point]"}, {"smiles": "O=C1NC(=O)N(Cc2ccco2)C(=O)/C1=C/c1ccc(-c2cccc([N+](=O)[O-])c2)o1", "Potency": "active: 18.4 µM"}, {"smiles": "CC(O)C1C=CC=CC(=O)OC2CC3OC4C5OC5(C)CCC4(COC(=O)C4OC4(C)C(O)CO1)C2(C)C31CO1", "note": "(stereo unspecified)", "Potency": "active: 0.0517 µM"}, {"smiles": "O=C(Nc1ccc(OC(F)(F)F)cc1)Oc1ccccc1N1CCCCC1", "Potency": "inconclusive [inhibitor, single point]"}, {"smiles": "O=C(Cc1ccccc1)OC(COCc1ccccc1)CN1CCOCC1", "note": "(stereo unspecified)", "Potency": "inactive"}, {"smiles": "CC(C)CN1Cc2cc(-c3cccc(F)c3)ccc2-n2nncc2C1", "Potency": "inconclusive [inhibitor, single point]"}, {"smiles": "O=C(c1ccccc1F)c1cn(Cc2ccccc2)c2ccccc12", "Potency": "inconclusive [inhibitor, single point]"}, {"smiles": "CC(=O)C1(O)CCC2C3CCC4=C(Cl)C(=O)CCC4(C)C3CCC21C", "note": "(stereo unspecified)", "Potency": "inconclusive [inhibitor, single point]"}, {"smiles": "Cc1ccc(-c2cc(C(F)F)n3ncc(C(=O)N4CCC5(CC4)OCCO5)c3n2)cc1", "Potency": "inconclusive [inhibitor, single point]"}, {"smiles": "C[C@H]1[C@H](OC(=O)CCC(=O)NCc2ccc(C(=O)O)cc2)O[C@@H]2O[C@@]3(C)CC[C@H]4[C@H](C)CC[C@@H]1C24OO3", "Potency": "active: 0.259 µM"}, {"smiles": "CCOc1ccc(N2C(=O)NC(=O)/C(=C\\c3ccc(N4CCOCC4)cc3C)C2=O)cc1", "Potency": "inactive"}, {"smiles": "Cc1cc(N)n(C2CCN(C)CC2)n1", "Potency": "inconclusive [inhibitor, single point]"}, {"smiles": "CCOc1ccc(-c2cc(C(=O)N3CCN(c4cccc(C(F)(F)F)c4)CC3)c3ccccc3n2)cc1", "Potency": "active: 5.17 µM"}, {"smiles": "NCC(=O)c1cccc([N+](=O)[O-])c1", "Potency": "inconclusive [inhibitor, partial curve, poor fit]"}, {"smiles": "CN(C)C(=O)Oc1cccc(NC(=O)c2ccccc2C(F)(F)F)c1", "Potency": "inactive"}, {"smiles": "CN1C(=O)CN=C(c2ccc[nH]2)c2cc(Cl)ccc21", "note": "(tested in a mixture with another compound)", "Potency": "active: 1.64 µM"}, {"smiles": "COC(=O)[C@@]12C[C@@H](CC(=O)NCc3cccc(C(F)(F)F)c3)C(=O)N(Cc3ccco3)C1=CCC(C)(C)C2", "Potency": "active: 20.6 µM"}, {"smiles": "Ic1ccccc1CN[C@@H]1C2CCN(CC2)[C@@H]1C(c1ccccc1)c1ccccc1", "Potency": "active: 11.6 µM"}, {"smiles": "CN1CCN(Cc2nnc3n2-c2ccc(Cl)cc2C(c2ccccc2)=NC3)CC1", "Potency": "inactive"}, {"smiles": "CC(C(O)c1ccccc1)N(C)CCOC(c1ccccc1)c1ccccc1", "note": "(stereo unspecified)", "Potency": "active: 11.9 µM"}, {"smiles": "CCCCN1C(=O)/C(=C\\c2ccco2)C(=O)N(CCc2ccccc2)C1=O", "activity change, negative = growth inhibition": "inconclusive: -30.5% [inhibitor]"}, {"smiles": "CN(CC(=O)Nc1ccccc1-c1ccccc1)C1CCCCC1", "Potency": "active: 23.1 µM"}, {"smiles": "Nc1c2c(nc3ccccc13)CCN(Cc1ccccc1)C2", "Potency": "inconclusive [inhibitor, partial curve]"}, {"smiles": "CN1CCN(Cc2ccccc2Sc2ccccc2)CC1", "Potency": "inconclusive [inhibitor, single point]"}, {"smiles": "CCOC(=O)c1nc2ccccc2c(=O)n1-c1ccc(C)cc1C", "Potency": "active: 8.2 µM"}, {"smiles": "Cn1cc(/C=C/c2nc3ccccc3c(=O)n2-c2ccccc2)c2ccccc21", "Potency": "active: 10.3 µM"}, {"smiles": "Cc1ccc(Cn2nnnc2CN2CCC(n3nnc4cc(C(F)(F)F)ccc43)CC2)cc1", "Potency": "inconclusive [inhibitor, single point]"}, {"smiles": "Cc1ccc(-c2nc3ccc(C)cn3c2CC(=O)N(C)C)cc1", "Potency": "inconclusive [inhibitor, single point]"}, {"smiles": "CCCCn1c(O)c(C(C)=NC(C)c2ccccc2)c(=O)[nH]c1=O", "note": "(stereo unspecified)", "Potency": "inconclusive [inhibitor, single point]"}, {"smiles": "CN(C)CCN(C)CCc1ccc(Cl)c(Cl)c1", "Potency": "active: 21.1 µM and active: 16.4 µM"}, {"smiles": "C[C@@]12CC[C@@H](c3cc4c(cc3C1)OCO4)N2c1ccccc1", "Potency": "inconclusive [inhibitor, single point]"}, {"smiles": "Cc1cccc(C)c1NC(=O)c1cccn(Cc2ccc3c(c2)OC(F)(F)O3)c1=O", "Potency": "inconclusive [inhibitor, single point]"}, {"smiles": "CCOC(=O)C(O)(c1ccc(N=Cc2ccccc2O)c(C)c1)C(F)(F)F", "note": "(stereo unspecified)", "Potency": "inactive"}, {"smiles": "Cn1cc(C(=O)N2CCC3(CC2)OCCO3)c2c3ccccc3n(C)c2c1=O", "Potency": "inactive"}, {"smiles": "c1ccc(NC2=NCCCS2)cc1", "Potency": "inactive"}, {"smiles": "O=C(NCC(c1cccnc1)N1CCN(c2ccccc2F)CC1)Oc1ccccc1", "note": "(stereo unspecified)", "Potency": "inconclusive [inhibitor, single point]"}, {"smiles": "Nc1c(C(=O)Nc2ccc(Cl)cc2)sc2nc3c(cc12)N1CCC3CC1", "Potency": "inconclusive [inhibitor, single point]"}, {"smiles": "COc1ccc(N2CCN(C(=O)C3CCCN(S(=O)(=O)c4ccc5c(c4)CCCN5C(C)=O)C3)CC2)cc1", "note": "(stereo unspecified)", "Potency": "active: 4.11 µM"}, {"smiles": "COC(=O)C1=C(c2ccc(F)cc2F)C[C@@H]2CC[C@H]1N2C(=O)NC1CCCCC1", "Potency": "inconclusive [inhibitor, single point]"}, {"smiles": "COc1ccc(C(=O)Nc2ccccc2C(=O)NC(C(=O)NCc2ccco2)C(C)C)cc1", "note": "(stereo unspecified)", "Potency": "inconclusive [inhibitor, single point]"}, {"smiles": "COc1ccc(Nc2nc(NC(C)C)nc3ccsc23)cc1OC", "Potency": "active: 18.4 µM"}, {"smiles": "CCOC(=O)c1ccc(N2C(=O)CC(N3CCC(O)(c4ccc(Cl)cc4)CC3)C2=O)cc1", "note": "(stereo unspecified)", "Potency": "inconclusive [inhibitor, single point]"}, {"smiles": "O=C1c2ccccc2C2(c3ccc(Cl)cc3)NCCN12", "note": "(stereo unspecified)", "Potency": "inactive"}, {"smiles": "C#CCCC[C@@H]1OC(=O)CNC(=O)C([C@@H](C)CC)NC(=O)[C@@H]2CCCN2C(=O)C([C@@H](C)CC)OC(=O)[C@H](Cc2ccccc2)N(C)C(=O)[C@H](C(C)C)NC(=O)C1(C)C", "note": "(stereo partly specified)", "Potency": "active: 13 µM"}, {"smiles": "CCOC(=O)C1=Nc2ccccc2/C1=C\\c1c(O)n(C)c(=O)n(C)c1=O", "Potency": "inconclusive [inhibitor, single point]"}, {"smiles": "Cc1ccsc1C(=O)C1CCCN(Cc2c(C)nn(C(C)C)c2C)C1", "note": "(stereo unspecified)", "Potency": "inactive"}, {"smiles": "C[C@H]1CCC/C=C/C2C[C@H](O)CC2[C@H](O)/C=C/C(=O)O1", "note": "(stereo partly specified)", "Potency": "active: 0.231 µM"}, {"smiles": "CCCc1cc(=O)oc2cc(OCC(=O)N3CCN(Cc4ccc5c(c4)OCO5)CC3)ccc12", "Potency": "inconclusive [inhibitor, single point]"}, {"smiles": "Cc1cccc(NC(=O)CSc2nc3ccccc3c(=O)n2C)c1C", "Potency": "active: 8.2 µM"}, {"smiles": "CCCNC1=C(C)C(=O)C2=C(C1=O)C(COC(N)=O)[C@]1(OC)C3NC3CN21", "note": "(stereo partly specified)", "Potency": "inconclusive [inhibitor, full curve]"}, {"smiles": "CCN(CCCNS(=O)(=O)c1ccc2c(c1)oc(=O)n2C)c1cccc(C)c1", "Potency": "inconclusive [inhibitor, single point]"}, {"smiles": "C[C@H](N)CN1CCc2ccc(Br)cc21", "Potency": "inconclusive [inhibitor, single point]"}, {"smiles": "CCOC(=O)c1c(-c2ccc(OC)cc2)oc2ccc(OC(=O)N(C)C)cc12", "Potency": "inconclusive [inhibitor, single point]"}, {"smiles": "CN1OC[C@@H]2CN[C@H](c3ccc(Br)cc3)C[C@@H]21", "Potency": "inactive"}, {"smiles": "CCc1ccc(-n2c(SC(CC)C(=O)N(CC)CC)nc3n[nH]c(C)c3c2=N)cc1", "note": "(stereo unspecified)", "Potency": "active: 2.59 µM"}, {"smiles": "CCCCCCn1c(O)c(C=NC2CCN(Cc3ccccc3)CC2)c(=O)[nH]c1=O", "Potency": "active: 20.6 µM"}, {"smiles": "CC1=C(C/C(C)=C/c2ccccc2)/C(=C/CO)[C@@H]2OC(=O)O[C@]2(C)C12CC2", "Potency": "active: 8.2 µM"}, {"smiles": "Cn1c(O)c(C=NCc2cccs2)c(=O)n(C)c1=O", "Potency": "inconclusive [inhibitor, single point]"}, {"smiles": "COc1ccc(NC(=O)N2C[C@@H]3C[C@@H](C2)c2cccc(=O)n2C3)cc1", "Potency": "inactive"}, {"smiles": "CC(=O)C1=C(O)C2C3c4c[nH]c5cccc(c45)CC3C(C)(C)N2C1=O", "note": "(stereo unspecified)", "Potency": "active: 10.3 µM"}, {"smiles": "COC(=O)C1=C(c2ccc(F)cc2OCc2ccccc2)C[C@@H]2CC[C@H]1N2C(=O)NCc1ccc(C)cc1", "Potency": "inconclusive [inhibitor, single point]"}]}]}
